Screen size: about 310,000 compounds; about 14,000 (4.5%) showed an effect of 50% or more. Effects have a minus sign here. The list shows a part of the results.
target: human ether-à-go-go-related gene (hERG) potassium channel (human, UniProt Q12809); assay: primary screen, population patch clamp on CHO cells stably expressing hERG
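Also: peak tail current of the secondary pulse compared with the same well before compound.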

Sequence of human ether-à-go-go-related gene (hERG) potassium channel (Q12809 whole entry, looked up): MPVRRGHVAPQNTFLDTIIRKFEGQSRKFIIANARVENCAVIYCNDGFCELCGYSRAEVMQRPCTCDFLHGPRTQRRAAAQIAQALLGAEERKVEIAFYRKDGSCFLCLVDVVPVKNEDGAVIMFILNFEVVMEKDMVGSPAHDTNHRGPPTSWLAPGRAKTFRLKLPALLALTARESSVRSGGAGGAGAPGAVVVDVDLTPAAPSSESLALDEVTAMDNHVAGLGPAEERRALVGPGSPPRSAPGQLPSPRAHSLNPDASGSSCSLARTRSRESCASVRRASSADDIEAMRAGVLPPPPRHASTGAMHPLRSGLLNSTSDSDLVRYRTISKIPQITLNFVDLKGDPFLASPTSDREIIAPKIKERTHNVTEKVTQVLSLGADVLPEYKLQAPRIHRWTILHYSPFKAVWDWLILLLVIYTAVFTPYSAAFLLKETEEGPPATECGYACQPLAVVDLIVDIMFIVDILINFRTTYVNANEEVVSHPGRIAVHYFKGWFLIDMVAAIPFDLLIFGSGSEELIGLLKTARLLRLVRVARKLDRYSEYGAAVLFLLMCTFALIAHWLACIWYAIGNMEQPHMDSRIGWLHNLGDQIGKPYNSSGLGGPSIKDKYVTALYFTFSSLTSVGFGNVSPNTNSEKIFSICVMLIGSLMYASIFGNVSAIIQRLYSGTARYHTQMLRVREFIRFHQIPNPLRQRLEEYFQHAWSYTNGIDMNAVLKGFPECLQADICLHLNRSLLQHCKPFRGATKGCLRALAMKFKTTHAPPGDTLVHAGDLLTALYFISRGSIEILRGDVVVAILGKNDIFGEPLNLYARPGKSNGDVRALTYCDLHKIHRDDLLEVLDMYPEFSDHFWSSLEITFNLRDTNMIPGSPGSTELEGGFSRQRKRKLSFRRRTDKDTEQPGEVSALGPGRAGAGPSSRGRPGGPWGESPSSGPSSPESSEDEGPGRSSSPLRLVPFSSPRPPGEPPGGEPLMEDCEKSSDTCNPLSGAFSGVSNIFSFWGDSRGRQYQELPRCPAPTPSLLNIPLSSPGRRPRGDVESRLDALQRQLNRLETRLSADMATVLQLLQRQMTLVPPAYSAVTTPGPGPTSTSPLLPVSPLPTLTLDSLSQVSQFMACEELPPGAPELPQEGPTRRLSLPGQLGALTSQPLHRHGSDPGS

Row | Structure (SMILES) | hERG current change (%, negative = inhibition) at 10uM [%]
1 | CC(C)c1cc(C(=O)N/N=C/c2ccoc2)cs1 | 0.319
2 | O=C(NCc1ccc2c(c1)OCO2)C1CCCN1C(=O)Nc1cccc(F)c1 (stereo not drawn) | -30.2
3 | O=C(COC(=O)c1ccccc1SCC(=O)N1CCCC1)Nc1ccccc1 | -5.59
4 | CCOc1ccc(S(=O)(=O)NCCc2cn3ccccc3n2)cc1 | -11
5 | CC(C)C1COS(=O)(=O)NC1CC(=O)SC(C)(C)C (stereo not drawn) | 5.24
6 | C/C(=N\NC(=O)c1cccc(S(=O)(=O)N2CCCC2)c1)c1ccc(C)cc1 | -50.4
7 | O=C(CCCN1C(=O)/C(=C\c2cccs2)SC1=S)Nc1ccccn1 | 28.1
8 | CC(=O)CSc1ncnc2nc[nH]c12 | 13
9 | CCN1C(=O)/C(=C/c2nc3ccccc3c(=O)n2-c2ccccc2)c2ccccc21 | 1.52
10 | COc1ccc(-c2ocnc2C(=O)Nc2ccc(N3CCOCC3)cc2N2CCOCC2)cc1OC | -30.5
11 | Cc1ccc(C(=O)OCC(=O)NNC(=O)c2ccc([N+](=O)[O-])cc2)o1 | 2.78
12 | CCOc1ccc(OC(=O)c2cccc(S(=O)(=O)N3CCN(C)CC3)c2)cc1 | -12.6
13 | O=C(CN1C(=O)c2cccnc2Oc2ccc(Cl)cc21)NCCCc1ccccc1 | -4.2
14 | COc1cc(OC)cc(N2CC(C)(C)C2=O)c1 | 18
15 | COc1cc(/C=C2\SC(=S)N(NS(=O)(=O)c3ccccc3)C2=O)cc(OC)c1OC | 1.93
16 | COc1ccc(C(=O)CCC(=O)Nc2cccc(Cl)c2)cc1 | 6.16
17 | COc1ccccc1N1CCN(c2cc(=O)n(-c3ccc(Br)cc3)c(=O)[nH]2)CC1 | 0.906
18 | Cc1ccc(C(=O)OCC(=O)N2CCOCC2)c(C)c1 | 21.8
19 | CC1CCCCC1NC(=O)C1CCN(S(=O)(=O)c2cccc3nsnc23)CC1 (stereo not drawn) | 1.71

Row | Structure (SMILES) | hERG current change (%, negative = inhibition) at 10uM [%]
20 | CCOc1ccc(-c2cnc3n2CCC3)cc1.Cl | -18.3
21 | Cc1cccc(NC(=O)c2ccc(N3C(=O)C4C5C=CC(C6CC56)C4C3=O)cc2)c1 (stereo not drawn) | 8.36
22 | CCOC(=O)c1cnc2ccccc2c1Nc1ccc2c(c1)OCCO2 | -12.3
23 | CCN1CCCC1CNC(=O)Cn1nc(C)n2c(cc3cc(C)ccc32)c1=O (stereo not drawn) | -25
24 | Cc1ccccc1OCCC(=O)OCC(=O)N1CCN(S(=O)(=O)c2ccc(Cl)cc2)CC1 | -13.1
25 | O=C(NCCN1CCOCC1)c1ccc2c(c1)N(Cc1ccc(Cl)cc1)CCS2 | -29.8
26 | O=C(CSc1nccn1Cc1ccccc1)Nc1nccs1 | -5.7
27 | CCOC(=O)c1ccccc1NC1CC(=O)N(c2ccccc2C)C1=O (stereo not drawn) | -0.773
28 | C/C(=N\NC(=O)CSCc1ccc(Cl)cc1)c1ccc(NC(=O)c2ccccc2)cc1 | 18.9
29 | CCNS(=O)(=O)c1ccc(CCC(=O)N2CCN(c3cc(Cl)ccc3C)CC2)cc1 | 13.4
30 | Oc1ccc(N=Nc2ccc3c(c2)OCCO3)c2cccnc12 | 11.9
31 | O=C(CN1C(=O)c2ccccc2S1(=O)=O)c1ccc(F)cc1 | 10.6
32 | CCCCNC(=O)CC1SC(=NCC)N(CC)C1=O (stereo not drawn) | 6.63
33 | CCn1nnc2c(=O)oc3ccccc3c21 | 6.46
34 | COC(=O)/C=C1\SC(N)=NC1=O | 7.71
35 | CC(C)CC(=O)N1CCN(Cc2ccc3ccccc3c2)CC1 | -1.76
36 | CCOC(=O)c1c(N)sc(C(=O)N2CCCCC2)c1C | 8.81
37 | Cc1nn(-c2ccc(F)cc2)c2sc(C(=O)O)cc12 | 11.6
38 | CCOc1ccc(C(=O)NCC(C)NC(=O)c2ccc(OCC)cc2)cc1 (stereo not drawn) | 24.5

Row | Structure (SMILES) | hERG current change (%, negative = inhibition) at 10uM [%]
39 | COc1cc(NS(=O)(=O)c2ccc(N=Cc3c(C)[nH]n(-c4ccccc4)c3=O)cc2)nc(OC)n1 | -4.88
40 | O=C(C[n+]1ccccc1)c1ccc(-c2ccccc2)cc1.[Br-] | -21.4
41 | CN(Cc1ccccc1)C(=O)c1[nH]cnc1C(=O)NCCCCCNC(=O)OC(C)(C)C | -2.63
42 | CCOC(=O)CCNC(=O)N1CCCC(C(=O)c2ccccc2SC)C1 (stereo not drawn) | 5.51
43 | Cc1ccc(OCCn2c(C3CC(=O)N(Cc4ccccc4)C3)nc3ccccc32)cc1 (stereo not drawn) | -12.6
44 | C=CCN1C(=O)S/C(=C\c2ccc(N3CCOCC3)cc2C)C1=O | -4.5
45 | CCc1nc(N=C(N)N)nc2ccccc12 | -4.78
46 | Cc1cc(NC(=O)c2cccs2)ncc1NC(=O)C(C)(C)C | 9.59
47 | CCc1ccccc1NC(=O)CN(C)C(=O)Cn1ncc(Cl)c(Cl)c1=O | 0.414
48 | c1ccc(Nc2nc(N3CCCC3)nc(N3CCOCC3)n2)cc1 | 7.66
49 | COc1ccc(OC)c(Nc2cc(C)nc3ccccc23)c1 | -57.6
50 | CCN(CC)c1ccc(/C=C/c2cccc[n+]2C)c(OC)c1.[I-] | -33.2
51 | CCC(CC)c1nnc(NC(=O)C2CCCO2)s1 (stereo not drawn) | 1.47
52 | COc1ccc(CNC(=O)COC(=O)c2ccc(F)c(S(=O)(=O)N3CCCCC3)c2)cc1OC | -14.6
53 | C/C(=N/NC(=O)c1ccncc1)c1ccc2c(c1)OCO2 | 13.8
54 | COc1cccc(NC(=S)N(CCCN2CCCC2)Cc2cccn2Cc2ccc(Cl)cc2)c1 | -41.2
55 | CCc1noc(C)c1C(=O)N(C)CC(=O)Nc1ccccc1C(F)(F)F | 1.04
56 | CN(C(=O)c1cc([N+](=O)[O-])ccc1NCc1cccnc1)c1ccccc1 | -21
57 | CC(C)CCn1c(SCC(=O)N2CC(=O)Nc3ccccc32)nc2scc(-c3cccs3)c2c1=O | -12.4
